Data taken from PubChem BioAssay AID1345082 (National Center for Advancing Translational Sciences (NCATS), 2018).
Hit rate of the full screen: of about 94,000 compounds, about 4,000 (4.3%) were called active. Inconclusive results, whose numbers are uncertain, are shown with a selection of clear calls. The call rests on the fitted dose curve; in most records, active means well fitted inhibition curve with a large enough effect; inconclusive means small, poorly fitted or top-dose-only effect; inactive means no such curve, though single readings can be large or run the other way. Potencies of inconclusive entries are doubtful fits and often do not repeat.
Potency means the concentration at half of the fitted maximal effect; tags describe the fitted curve by direction and shape.

Experiment: Cytotoxic Profiling in NIH 3T3 Cell Line of Diverse Libraries Using Quantitative High-Throughput Screening; further: nearly all actives have a fitted effect of over 55% in size
Conditions: NIH 3T3 viability, CellTiter-Glo ATP luminescence, 48-72 h; series mostly up to 96.7 µM
Procedure, shortened: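 NIH 3T3 cells at 400 cells/well received 23 nL of compound by pintool and were incubated 48 or 72 h at 37 °C. Viability was read as ATP-coupled CellTiter-Glo luminescence.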
For `O=C(c1ccc2c(c1)N(C(=O)c1ccccc1)CC2)N1CCN(c2cccc(Cl)c2)CC1`, the Potency was inconclusive: 14.1 µM [inhibitor, full curve]. In the case of `Cc1ccc(OCc2nc(C3CN(C(=O)C4(c5ccccc5)CC4)C3)no2)cc1`, the Potency is reported as inconclusive: 70.8 µM [inhibitor, single point]. For `CCOc1ccc(NC(=O)Cn2c(C)ccc(NC(=O)Nc3cccc(C)c3)c2=O)cc1`, the Potency was active: 28.2 µM. In the case of `O=C(NC[C@H]1Cn2cc(-c3ccccc3)nc2CO1)Nc1ccc(F)cc1`, the Potency is reported as inconclusive: 79.4 µM [inhibitor, partial curve]. For `Cc1ccc(-c2ncc(C(=O)N3CCC(Nc4ncccn4)CC3)c(=O)[nH]2)cc1`, the Potency was “inactive”. In the case of `COc1ccc(C(=O)N2CCCC(c3nn(-c4ccc(Cl)cc4)c(=O)[nH]3)C2)cc1` (centres undefined), the Potency is reported as inconclusive: 50.1 µM [inhibitor, partial curve, poor fit]. With `CNC(=O)[C@H]1C[C@H](Oc2cccnc2)CN1C(=O)c1ccccc1` the Potency was “inactive”. For `COc1cccc(-c2nn(-c3ccccc3)c(OC(C)=O)c2-c2ccc(NC(=O)C3CCCC3)cc2)c1`, the Potency was inconclusive: 44.7 µM [inhibitor, partial curve, poor fit]. For `COc1ccc(CN2C(=O)[C@@H]3C[C@@H](O)CN3C3(CN(C4CCCCC4)C3)C2=O)cc1`, the Potency was “inactive”. In the case of `O=C1CC2(CCN([S+](=O)([O-])c3cccc(C(F)(F)F)c3)CC2)Oc2cc(Cl)ccc21`, the Potency is reported as inconclusive: 70.8 µM [inhibitor, single point]. In the case of `O=C(NCC1CC1)c1ccc2nnc(Cc3ccco3)n2c1`, the Potency is reported as “inactive”. In the case of `Cc1ccsc1C(=O)N1CCCC(Cc2nc(C3CCOCC3)no2)C1` (centres undefined), the Potency is reported as inconclusive: 70.8 µM [inhibitor, single point]. In the case of `COc1ccc(OCC(O)CN2CCC(=O)N(Cc3ccccc3)Cc3sccc32)cc1` (centres undefined), the Potency is reported as inconclusive: 44.7 µM [inhibitor, partial curve, poor fit]. With `COc1cc(CNCCc2ccc(Cl)cc2)ccc1OCC(O)CN1CCOCC1` (centres undefined) the Potency was inconclusive: 56.2 µM [inhibitor, partial curve, poor fit]. With `CCc1ccc(CNC(=O)CN2C(=O)C(c3ccccc3)=NC23CCCC3)cc1` the Potency was inconclusive: 70.8 µM [inhibitor, single point]. For `Cn1nc(C(=O)N2CCn3nc(Cc4ccccc4)cc3C2)ccc1=O`, the Potency was “inactive”. With `Cc1nn(-c2ccccc2)c2c1C(C(C)C)N(C1CN(C(=O)c3ccc(Cl)cc3)C1)C2=O` (centres undefined) the Potency was inconclusive: 11.2 µM [inhibitor, full curve, poor fit]. With `CCc1cccc(NC(=O)N2CCCC(c3noc(COc4ccccc4F)n3)C2)c1` (centres undefined) the Potency was inconclusive: 50.1 µM [inhibitor, partial curve, poor fit]. For `CCN1c2cc(C(=O)NCc3ccc(C(C)C)cc3)ccc2C(=O)N2CCCCCC21` (centres undefined), the Potency was inconclusive: 50.1 µM [inhibitor, partial curve, poor fit]. In the case of `COc1cccc(CNC(=O)C2CCN(c3cc(C(F)(F)F)nc(C)n3)CC2)c1`, the Potency is reported as inconclusive: 39.8 µM [inhibitor, partial curve, poor fit]. In the case of `O=C(Cc1cccc(Cl)c1)NC1CCN(c2ccnc3ccnn23)C1` (centres undefined), the Potency is reported as inconclusive: 31.6 µM [inhibitor, full curve, poor fit]. With `O=S(=O)(c1ccc(Cl)cc1)c1nnn2c1nc(NCc1ccc(F)cc1)c1ccccc12` the Potency was active: 31.6 µM. For `O=C(c1ccco1)N1CCC(c2nc(C3CCOCC3)no2)C1` (centres undefined), the Potency was “inactive”. For `O=C(NC1CN(c2ccnc3ccnn23)C1)C1CC1`, the Potency was “inactive”. With `O=C(c1cccc2[nH]ccc12)N1CCC(N2C(=O)C(OCC3CC3)C23CCOCC3)CC1` (centres undefined) the Potency was “inactive”. With `Cn1nc(C2CCCN(C(=O)Nc3ccc4c(c3)OCCO4)C2)n(C2CCCC2)c1=O` (centres undefined) the Potency was “inactive”. With `CN1C(=O)CCC2(C(=O)O)CCCC=C12` (centres undefined) the Potency was “inactive”. For `O=C1CC(c2ccccc2)N(C(=O)CNC(=O)Nc2ccccc2)CCCCCCN1` (centres undefined), the Potency was “inactive”. For `O=C(CCCc1ccccc1)N1CCN(C(=O)c2nnn3c2COC(c2ccccc2)C3)CC1` (centres undefined), the Potency was “inactive”. For `NC(=O)c1cccc(CN2CCC3(CC2)Cc2ccccc2N(C(=O)c2ccc(Cl)cc2)C3)c1`, the Potency was inconclusive: 39.8 µM [inhibitor, partial curve, poor fit]. For `CN(C)c1ncc2c(n1)C(C)(C(=O)Nc1ccc(Cl)cc1)CCC2` (centres undefined), the Potency was inconclusive: 17.8 µM [inhibitor, partial curve, poor fit]. In the case of `O=C(Cc1c[nH]c2ncc(-c3ccccc3C(F)(F)F)cc12)NCc1cccnc1`, the Potency is reported as inconclusive: 79.4 µM [inhibitor, partial curve]. With `COCCCNC(=O)C1CCN(c2nccc(Nc3ccccc3F)n2)CC1` the Potency was inconclusive: 50.1 µM [inhibitor, partial curve, poor fit]. For `COc1ccc(-c2cc(N3CCC(NC(=O)c4cccc(OC(F)(F)F)c4)C3)n[nH]2)cc1` (centres undefined), the Potency was inconclusive: 44.7 µM [inhibitor, partial curve, poor fit]. With `Cc1n[nH]c(C)c1CCNC(=O)c1ccccc1OC1CCN(Cc2ccccn2)CC1` the Potency was “inactive”. In the case of `Cc1oc(-c2cccc(Oc3ccccc3)c2)nc1CN(C)CCCO`, the Potency is reported as inconclusive: 56.2 µM [inhibitor, partial curve, poor fit]. With `Cc1ccc(CN2CCc3nc(C(C)C)nc(-c4ccc(O)cc4)c3C2)cc1` the Potency was inconclusive: 70.8 µM [inhibitor, partial curve, poor fit]. With `O=C(Nc1cccc(-n2cccn2)c1)C1CCCN(Cc2cccc(F)c2F)C1` (centres undefined) the Potency was inconclusive: 35.5 µM [inhibitor, partial curve, poor fit]. With `CN(C)c1ccc(-c2nc(-c3nnn4c3COC(c3ccccc3Cl)C4)no2)cc1` (centres undefined) the Potency was “inactive”. For `CCC1=C(C(=O)OC)C(c2ccccc2Cl)N2C(CC(=O)N(C)Cc3ccccc3)=CSC2=N1` (centres undefined), the Potency was inconclusive: 50.1 µM [inhibitor, partial curve, poor fit]. In the case of `CCc1nnc(NC(=O)C2CC(=O)N(c3n[nH]c4ccccc34)C2)s1` (centres undefined), the Potency is reported as “inactive”. With `O=C(NCCc1noc(-c2ccncc2)n1)C1CCOC1` (centres undefined) the Potency was “inactive”. In the case of `CN(C)c1cccc(-c2cnc(Nc3cncnc3)c3c2CCO3)c1`, the Potency is reported as inconclusive: 56.2 µM [inhibitor, partial curve, poor fit]. With `Cn1cc(-c2cnc(Nc3ccc(N4CCOCC4)cc3)c3c2CCO3)cn1` the Potency was inconclusive: 89.1 µM [inhibitor, partial curve]. For `COc1ccc(-c2onc(C)c2C(=O)NCCSCc2ccco2)cc1`, the Potency was inconclusive: 44.7 µM [inhibitor, partial curve, poor fit]. For `CCN1c2cc(C(=O)Nc3ccc(OC)c(F)c3)ccc2C(=O)N2CCCCCC21` (centres undefined), the Potency was inconclusive: 44.7 µM [inhibitor, partial curve, poor fit]. In the case of `C[S+](=O)([O-])NC1CCN(Cc2ccc(-c3ccsc3)cc2)C1` (centres undefined), the Potency is reported as inconclusive: 44.7 µM [inhibitor, partial curve, poor fit]. With `O=C(NCc1cccs1)c1ccc2nnc(-c3ccc(Cl)cc3)n2c1` the Potency was inconclusive: 44.7 µM [inhibitor, partial curve, poor fit]. In the case of `COc1ccc(-c2nc(-c3ccccc3)nc3c2CN(C(=O)N(C)C)CC3)cc1`, the Potency is reported as inconclusive: 50.1 µM [inhibitor, partial curve, poor fit]. With `CCOCCNc1ncnc2c1CN(C1CCC1)C(=O)CN2C` the Potency was inconclusive: 56.2 µM [inhibitor, partial curve, poor fit]. With `Cc1ccc(CN2CCC3(CC2)CNc2ccccc2[S+](=O)([O-])N3)cc1` the Potency was inconclusive: 50.1 µM [inhibitor, partial curve, poor fit]. With `Cc1cc(C)cc(-c2ccc(CN3CCCC(NC(=O)Cc4ccc(F)cc4)C3)cc2)c1` (centres undefined) the Potency was inconclusive: 44.7 µM [inhibitor, partial curve]. For `COc1ccc(C(=O)N2CCCC(C(=O)N3CCCC3c3nc4ccncc4[nH]3)C2)cc1` (centres undefined), the Potency was “inactive”. With `Cc1oc2ccn(Cc3cccc(F)c3)c(=O)c2c1C(=O)NC(C)c1ccccn1` (centres undefined) the Potency was inconclusive: 39.8 µM [inhibitor, partial curve, poor fit]. In the case of `CC(=O)N1CC2(CCN(Cc3cccnc3)CC2)Cc2ccccc21`, the Potency is reported as inconclusive: 89.1 µM [inhibitor, single point]. With `O=C(NC1CC1)c1ccccc1OCC1CCCN(C2CCCCC2)C1` (centres undefined) the Potency was “inactive”. In the case of `O=C(COc1ccccc1)NC1CCCc2c1[nH]c1ccccc21` (centres undefined), the Potency is reported as inconclusive: 39.8 µM [inhibitor, partial curve, poor fit]. For `O=C1Cc2c(-c3cccc4ccccc34)n[nH]c2CN1Cc1ccccn1`, the Potency was inconclusive: 79.4 µM [inhibitor, partial curve, poor fit]. In the case of `O=C(c1ccccc1Cl)N1CCCC(C(=O)N2CCC(c3nc4ccncc4[nH]3)C2)C1` (centres undefined), the Potency is reported as “inactive”. In the case of `Cc1noc(C)c1-c1cc(-c2ccccc2O)cn2cncc12`, the Potency is reported as active: 25.1 µM. In the case of `Cc1nc(-c2cn(C3CCCN(C(=O)c4cc5ccccc5[nH]4)C3)nn2)no1` (centres undefined), the Potency is reported as inconclusive: 44.7 µM [inhibitor, partial curve, poor fit]. In the case of `CNC(=O)c1cc(-c2ccccc2C(F)(F)F)nc2c1cnn2C`, the Potency is reported as inconclusive: 89.1 µM [inhibitor, partial curve]. With `COc1ccc(NC(=O)c2c(C)oc3ccn(Cc4ccc(F)cc4)c(=O)c23)c(OC)c1` the Potency was inconclusive: 39.8 µM [inhibitor, partial curve]. In the case of `COc1cc(OC)cc(C(=O)N2[C@@H]3CC[C@H]2CC(NC(=O)c2ccc(F)cc2)C3)c1` (some centres undefined), the Potency is reported as inconclusive: 50.1 µM [inhibitor, partial curve, poor fit].
